Results reported in PubChem BioAssay AID686978 (National Center for Advancing Translational Sciences (NCATS), 2013).
In all, about 420,000 compounds went through this assay and about 64,000 (15%) were called active. The inconclusive results got no clear call from the source; some entries with a clear call stand among them for comparison. The call rests on the fitted dose curve; in most records, active means well fitted inhibition curve with a large enough effect; inconclusive means small, poorly fitted or top-dose-only effect; inactive means flat fitted curve, though single readings scatter. No potency is given beside an inconclusive call; the fits are too rough.

assay: qHTS for Inhibitors of human tyrosyl-DNA phosphodiesterase 1 (TDP1): qHTS in cells in absence of CPT; conditions: DT40 Tdp1-/- hTDP1 cells, no CPT, ATP luminescence, 48 h; activity change, negative = growth inhibition: at 46.2 µM (top of the series); further: nearly all actives have a fitted effect of over 55% in size
Method in brief: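 Seeded 400 DT40-hTDP1 cells/well (vehicle DMSO, no 20 nM CPT); pinned compounds; ≥48 hr at 37 °C; CellTiter-Glo luminescence as viability measure.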
On the % scale 0 is the no-effect control and ±100 the full control effect; potency means the concentration at half of the fitted maximal effect; tags describe the fitted curve by direction and shape.

Row | SMILES | Potency | activity change, negative = growth inhibition
1 | CCc1cccc(CC)c1NC(=S)N1CCn2cccc2C1c1ccncc1 (stereo not given) | inactive | –
2 | COc1ccc(-c2noc(C3CCCN(C(=O)c4cccc(C)c4)C3)n2)cc1 (stereo not given) | active: 16.4 µM | –
3 | COc1ccccc1C1=NN(C(=O)c2ccccc2)C(c2ccc(Br)cc2)C1 (stereo not given) | inactive | –
4 | O=C(CNC(=O)c1ccncc1)N/N=C/c1cc(Br)ccc1OCc1ccccc1 | inconclusive [inhibitor, single point] | –
5 | Cc1ccc(CCNC(=O)C2CCCN(S(=O)(=O)c3ccc4c(c3)oc(=O)n4C)C2)cc1 (stereo not given) | inactive | –
6 | COc1ccc(NC(=O)CN(C)C(=O)/C=C/c2cn(Cc3ccccc3)nc2-c2cccnc2)cc1 | inactive | –
7 | CC(C)c1cccc(C(C)C)c1NC(=O)COC(=O)c1ccc(OCC(=O)Nc2cccc(C(F)(F)F)c2)cc1 | inconclusive [inhibitor, single point] | –
8 | COc1ccc(C=NC(CO)C(O)c2ccc([N+](=O)[O-])cc2)cc1 (stereo not given) | inactive | –
9 | NC1=NC[C@@H](Cc2ccc(O)cc2)N1CCC12CC3CC(CC(C3)C1)C2 | active: 20.6 µM | –
10 | COc1ccc(Nc2nc(C)c(-c3ccccc3)s2)cc1 | inconclusive [inhibitor, single point] | –
11 | COc1cc(COc2ccc(S(=O)(=O)N3CCOCC3)cc2[N+](=O)[O-])ccc1OC(F)F | inconclusive [inhibitor, single point] | –
12 | Cc1ccc(N=CC=C2OC(C)(C)C(C)(C)O2)c(C)c1 | inconclusive [inhibitor, single point] | –
13 | COC(=O)C1=C(C(=O)OC)[C@@H]2N(Cc3ccccc3)c3ccccc3[C@@]23C[C@@H](C(=O)OC)N(C(=O)COCc2ccccc2)C3=N1 | inconclusive [inhibitor, single point] | –
14 | O=C(/C=C/c1cc(Br)ccc1F)Nc1cccnc1 | inconclusive [inhibitor, single point] | –
15 | CN1CCN(C(=O)CCCOc2cc(=O)n(C)c3ccccc23)CC1 | inactive | –
16 | Cc1sc2c(c1C)C(O)=C(C(=O)Nc1ccccc1)S(=O)(=O)N2C | inconclusive [inhibitor, single point] | –
17 | O=[N+]([O-])c1ccc(Cl)cc1C=NNc1ccccn1 | inactive | –
18 | CN(C)S(=O)(=O)c1ccc(NC(=O)/C=C/c2ccccc2Cl)cc1 | active: 23.1 µM | –
19 | CSc1ccc(-c2sc(Nc3ccccc3)n[n+]2-c2ccccc2)cc1 | inconclusive [inhibitor, single point] | –
20 | CCOC(=O)C1=C(C)NC(C)=C(C(=O)OCC)C1c1sccc1C | inconclusive [inhibitor, single point] | –
21 | CCCCOC(=O)c1ccc(Nc2nc3ccc(C)cc3n3cnnc23)cc1 | inactive | –
22 | Cc1ccc(/C=C2\SC(=S)N(CCC(=O)NNC(=O)c3cccc(O)c3)C2=O)cc1 | inconclusive [inhibitor, partial curve, poor fit] | –
23 | O=c1nc2ccccc2c2n1CC(CN1CCN(c3ccccc3)CC1)N2 (stereo not given) | inactive | –

Row | SMILES | Potency | activity change, negative = growth inhibition
24 | Cc1ccc(N2C(=O)[C@@H]3C(C(=O)CCN4C(=O)c5ccccc5C4=O)=NN[C@@H]3C2=O)cc1 | inactive | –
25 | CC(C)CNC(=S)NC1CC2CCCC(C1)N2Cc1ccco1 (stereo not given) | inactive | –
26 | OCC1(Cc2ccccc2)CCN(Cc2cnc(-c3cccc4ccccc34)nc2)CC1 | inconclusive [inhibitor, single point] | –
27 | C/C(CCc1ccc2c(c1)OCO2)=N\N=C(/N)SC1CC(=O)N(c2ccccc2F)C1=O (stereo not given) | inconclusive [inhibitor, single point] | –
28 | CCC(C(=O)Nc1ccccc1OC)n1c(C(=O)OC)cc2ccsc21 (stereo not given) | inconclusive [inhibitor, single point] | –
29 | CC/C(=N\NC(=O)c1cc(C2CC2)[nH]n1)c1ccccc1 | inactive | –
30 | COc1ccc(C2C(C#N)=C(N)Oc3c2c(-c2ccccc2)nn3-c2ccccc2)c(OC)c1OC (stereo not given) | inconclusive [inhibitor, single point] | –
31 | CC(=O)Nc1ccc(S(=O)(=O)N2CCC(c3nc4ccc(C)cc4[nH]3)CC2)cc1 | inconclusive [inhibitor, single point] | –
32 | O=C(Nc1cc(Cl)ccc1O)c1cc2nc(-c3ccc4c(c3)OCO4)cc(C(F)(F)F)n2n1 | inconclusive [inhibitor, single point] | –
33 | O=C(Nc1ccccc1N1CCCCC1)c1ccc([N+](=O)[O-])o1 | active: 16.4 µM | –
34 | Cc1cccc2c(CCNC(=O)c3ccc([N+](=O)[O-])cc3)c[nH]c12 | inconclusive [inhibitor, single point] | –
35 | CC(OC(=O)c1ccc(Br)c(S(=O)(=O)N2CCOCC2)c1)C(=O)NC1CCCCC1C (stereo not given) | inconclusive [inhibitor, single point] | –
36 | CCOc1ccc2ccccc2c1/C=N/NC(=O)CNC(=O)Cc1ccccc1 | inactive | –
37 | COc1ccccc1C1/C(=C(/O)c2ccc(C)cc2)C(=O)C(=O)N1CC(C)O (stereo not given) | – | inconclusive: -2.1% [inhibitor]
38 | CN1CCN(C(=O)CN(C)S(=O)(=O)c2ccc3ccccc3c2)CC1 | inactive | –
39 | CN(C)c1ccc(NC(=O)C2(c3cccs3)CCOCC2)cc1 | inactive | –
40 | COC(=O)C1C2C=CC3(CN(C4CCCC4)C(=O)C13)O2 (stereo not given) | inactive | –
41 | CCOc1ccc(OCC)c(NC(=O)C2CCCN(c3nc(C)cc(C)n3)C2)c1 (stereo not given) | active: 20.6 µM | –
42 | O=C1c2ccccc2NC(c2ccccc2Cl)N1N=C1CCCCCC1 (stereo not given) | inconclusive [inhibitor, single point] | –
43 | COc1ccc(-c2ccc(/C=C3/C(=N)N4C=CSC4=NC3=O)o2)c([N+](=O)[O-])c1 | inconclusive [inhibitor, single point] | –
44 | COc1ccccc1CC(=O)NCc1nn(-c2ccccc2)nc1C | inconclusive [inhibitor, partial curve, poor fit] | –
45 | CCOC(=O)c1ccc2[nH]c3ccccc3c2c1 | inconclusive [inhibitor, single point] | –
